# Source: the supplement of paper PMC8728848
# This is one part of the list.
# Tests used:
# Test in all cases: glycan array binding signal (z-score within array); higher = stronger binding
# Conditions in all cases: glycan notation: IUPAC condensed, linker removed
# [1] = target: Fuc(a1-2)Gal(b1-4)GlcNAc(b1-3)Gal(b1-4)GlcNAc(b1-2)Man(a1-3)[Fuc(a1-2)Gal(b1-4)GlcNAc(b1-3)Gal(b1-4)GlcNAc(b1-2)Man(a1-6)]Man(b1-4)GlcNAc(b1-4)GlcNAc
# Summary of the method: (§1)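 Glycan array data came from 3228 arrays in the Consortium for Functional Glycomics database, and only arrays with an available protein sequence were kept. Glycan names were put into IUPAC-condensed notation, and columns mapping to the same glycan were averaged. The binding signal is a within-array Z-score, averaged across arrays of one protein sequence run at different concentrations or buffers and across linkers. A negative Z-score can be read as non-binding.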
# [2] = target: Fuc(a1-2)Gal(b1-4)GlcNAc(b1-3)Gal(b1-4)GlcNAc(b1-3)Gal(b1-4)GlcNAc
# Summary of the method: as §1
# [3] = target: Fuc(a1-2)Gal(b1-4)GlcNAc(b1-3)GalNAc
# Summary of the method: as §1
# [4] = target: Fuc(a1-2)Gal(b1-4)GlcNAc(b1-3)[Fuc(a1-2)Gal(b1-4)GlcNAc(b1-6)]GalNAc
# Summary of the method: as §1
# [5] = target: Fuc(a1-2)Gal(b1-4)GlcNAc(b1-3)[Fuc(a1-3)[Gal(b1-4)]GlcNAc(b1-6)]Gal(b1-4)Glc
# Summary of the method: as §1
# [6] = target: Fuc(a1-2)Gal(b1-4)GlcNAc(b1-6)GalNAc
# Summary of the method: as §1
# [7] = target: Fuc(a1-2)Gal(b1-4)GlcNAc6S
# Summary of the method: as §1
# [8] = target: Fuc(a1-2)Gal(b1-4)[Fuc(a1-3)]GlcNAc
# Summary of the method: as §1
# [9] = target: Fuc(a1-2)Gal(b1-4)[Fuc(a1-3)]GlcNAc(b1-2)Man(a1-3)[Fuc(a1-2)Gal(b1-4)[Fuc(a1-3)]GlcNAc(b1-2)Man(a1-6)]Man(b1-4)GlcNAc(b1-4)[Fuc(a1-6)]GlcNAc
# Summary of the method: as §1
# [10] = target: Fuc(a1-2)Gal(b1-4)[Fuc(a1-3)]GlcNAc(b1-2)[Fuc(a1-2)Gal(b1-4)[Fuc(a1-3)]GlcNAc(b1-4)]Man(a1-3)[Fuc(a1-2)Gal(b1-4)[Fuc(a1-3)]GlcNAc(b1-2)Man(a1-6)]Man(b1-4)GlcNAc(b1-4)GlcNAc
# Summary of the method: as §1
# [11] = target: Fuc(a1-2)Gal(b1-4)[Fuc(a1-3)]GlcNAc(b1-3)Gal(b1-4)[Fuc(a1-3)]GlcNAc
# Summary of the method: as §1
# [12] = target: Fuc(a1-2)Gal(b1-4)[Fuc(a1-3)]GlcNAc(b1-3)Gal(b1-4)[Fuc(a1-3)]GlcNAc(b1-3)Gal(b1-4)[Fuc(a1-3)]GlcNAc
# Summary of the method: as §1
# [13] = target: Fuc(a1-2)Gal(b1-4)[Fuc(a1-3)]GlcNAc(b1-3)GalNAc
# Summary of the method: as §1
# [14] = target: Fuc(a1-2)Gal(b1-4)[Fuc(a1-3)]GlcNAc(b1-3)[Neu5Ac(a2-6)Gal(b1-4)GlcNAc(b1-6)]Gal(b1-4)Glc
# Summary of the method: as §1
# [15] = target: Fuc(a1-2)Gal3S(b1-4)GlcNAc
# Summary of the method: as §1
# [16] = target: Fuc(a1-2)Gal6S(b1-3)GlcNAc
# Summary of the method: as §1
# [17] = target: Fuc(a1-2)Gal6S(b1-3)GlcNAc6S
# Summary of the method: as §1
# Fuc(a1-2)Gal6S(b1-4)Glc = target: Fuc(a1-2)Gal6S(b1-4)Glc
# Summary of the method: as §1
# [18] = target: Fuc(a1-2)Gal6S(b1-4)Glc6S
# Summary of the method: as §1
# Fuc(a1-2)[Gal(a1-3)]Gal = target: Fuc(a1-2)[Gal(a1-3)]Gal
# Summary of the method: as §1
# [19] = target: Fuc(a1-2)[Gal(a1-3)]Gal(b1-3)GalNAc
# Summary of the method: as §1
# [20] = target: Fuc(a1-2)[Gal(a1-3)]Gal(b1-3)GalNAc(b1-3)Gal(a1-4)Gal(b1-4)Glc
# Summary of the method: as §1
# [21] = target: Fuc(a1-2)[Gal(a1-3)]Gal(b1-3)GlcNAc
# Summary of the method: as §1
# [22] = target: Fuc(a1-2)[Gal(a1-3)]Gal(b1-3)GlcNAc(b1-2)Man(a1-3)[Fuc(a1-2)[Gal(a1-3)]Gal(b1-3)GlcNAc(b1-2)Man(a1-6)]Man(b1-4)GlcNAc(b1-4)GlcNAc
# Summary of the method: as §1
# [23] = target: Fuc(a1-2)[Gal(a1-3)]Gal(b1-3)GlcNAc(b1-2)Man(a1-3)[Fuc(a1-2)[Gal(a1-3)]Gal(b1-3)GlcNAc(b1-2)Man(a1-6)]Man(b1-4)GlcNAc(b1-4)[Fuc(a1-6)]GlcNAc
# Summary of the method: as §1
# [24] = target: Fuc(a1-2)[Gal(a1-3)]Gal(b1-3)GlcNAc(b1-3)GalNAc
# Summary of the method: as §1
# [25] = target: Fuc(a1-2)[Gal(a1-3)]Gal(b1-3)GlcNAc(b1-6)GalNAc
# Summary of the method: as §1
# [26] = target: Fuc(a1-2)[Gal(a1-3)]Gal(b1-4)Glc
# Summary of the method: as §1
# [27] = target: Fuc(a1-2)[Gal(a1-3)]Gal(b1-4)GlcNAc
# Summary of the method: as §1
# [28] = target: Fuc(a1-2)[Gal(a1-3)]Gal(b1-4)GlcNAc(b1-2)Man
# Summary of the method: as §1
binder,measurement,setting,value
CML1 (Coprinopsis cinerea) (protein) MAIFHTGSELFIITRGPGKLTLLTWGGLNNLRSVIGAIPTENTGVTKWAVSFSHNYTRFSFIWEGQGEACYQIGNGLTRSPVGRSWSSSSTIHWGSSTVITEDVTSVVPGAVNRDKVTTAYALPDNL,glycan array binding signal (z-score),[1],0.069
same,glycan array binding signal (z-score),[2],-0.066
same,glycan array binding signal (z-score),[3],-0.324
same,glycan array binding signal (z-score),[4],-0.306
same,glycan array binding signal (z-score),[5],1.19
same,glycan array binding signal (z-score),[6],-0.324
same,glycan array binding signal (z-score),[7],1.04
same,glycan array binding signal (z-score),[8],1.22
same,glycan array binding signal (z-score),[9],0.227
same,glycan array binding signal (z-score),[10],-0.287
same,glycan array binding signal (z-score),[11],2.74
same,glycan array binding signal (z-score),[12],1.69
same,glycan array binding signal (z-score),[13],-0.336
same,glycan array binding signal (z-score),[14],0.503
same,glycan array binding signal (z-score),[15],-0.157
same,glycan array binding signal (z-score),[16],3.23
same,glycan array binding signal (z-score),[17],3.67
same,glycan array binding signal (z-score),Fuc(a1-2)Gal6S(b1-4)Glc,1.17
same,glycan array binding signal (z-score),[18],1.75
same,glycan array binding signal (z-score),Fuc(a1-2)[Gal(a1-3)]Gal,-0.32
same,glycan array binding signal (z-score),[19],-0.003
same,glycan array binding signal (z-score),[20],-0.267
same,glycan array binding signal (z-score),[21],3.51
same,glycan array binding signal (z-score),[22],2.99
same,glycan array binding signal (z-score),[23],1.07
same,glycan array binding signal (z-score),[24],1.78
same,glycan array binding signal (z-score),[25],2.21
same,glycan array binding signal (z-score),[26],-0.311
same,glycan array binding signal (z-score),[27],-0.352
same,glycan array binding signal (z-score),[28],-0.329
